Test results as given in paper PMC10726135.
The list shows a part of the results. At the low end of the ranking, values are background and their order means little. The protein was read in a cell extract, so binding may be indirect.

Biological target: T1, HNF4alpha8 (COS-7 nuclear extract) (UniProt P41235-5)
T1 sequence: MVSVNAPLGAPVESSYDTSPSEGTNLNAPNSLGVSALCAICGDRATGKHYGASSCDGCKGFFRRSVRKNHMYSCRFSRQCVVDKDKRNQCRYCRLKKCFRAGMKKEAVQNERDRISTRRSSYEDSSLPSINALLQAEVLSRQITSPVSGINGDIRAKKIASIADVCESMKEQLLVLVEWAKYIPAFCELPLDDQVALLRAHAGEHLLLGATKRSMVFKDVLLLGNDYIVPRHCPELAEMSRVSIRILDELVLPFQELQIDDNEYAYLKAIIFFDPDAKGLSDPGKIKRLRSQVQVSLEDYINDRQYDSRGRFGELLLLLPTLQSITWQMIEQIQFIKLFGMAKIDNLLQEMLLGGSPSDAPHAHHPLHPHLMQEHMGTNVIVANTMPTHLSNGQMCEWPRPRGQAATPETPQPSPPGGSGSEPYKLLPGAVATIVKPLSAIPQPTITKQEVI
Assay: protein-binding microarray
Details: COS-7 nuclear extract on double-stranded Agilent 4x180k PBM; binding buffer, salt, pH and temperature not given; high values mean tight binding; double strand, one strand shown; sequences stand for … in …GCCTAGGGAGATTAGAGTATCGGTCGA

Sequence | binding signal (log2 normalized intensity)
ATTCTGTACTTCAACCAGGTTCTCTTTACT | 0.76
CCTTTGTGTGAATCGACCTTTAGCACCGTA | 7.24
CACCATTAGACTCTGCCCTCCTTAAGACCT | 2.24
TATTATATTGTGGGTTCTTGCCCTTTGGTC | 6.8
ACCTGCCTCTCTCTCATGTCTGTACTGGGA | 1.6
AAGTAGCCTGGTCAGGAACAAAGGTCACAG | 5.98
AAACTGGAGGCCGCGACAAGCGTCGCTGAG | -1.38
TTCTGTCCTCTCAAAGTCCACCCGGCCAGC | 4.52
TCCCTTTGATATTTATCAAGATGAACTTTG | 5.51
TCTTCAGGCTGGGGCCCCATCGACCTTTGC | 7.4
AAACAAAAGCTGCTTCTGTAAAACTCCTGT | -1.26
GAGCCTGCAAGGGAGACCAGGAAAGTGAAT | -1.24
AGATAAGAAAGAATCAGCACAAGAATGCTA | -1.21
GTCTGCTACCATCAGATAAGCTCAGGAGAA | -1.4
CAGATACCCAGGCATATCCAACCTTCTCCC | -1.12
ACTTGTCTCACATCTGATAGCTAAACCAGA | -1.24
AAGGACTGTTGGACCTCGAACTCCAGTGGG | 3.34
GTGTGCGTGGGTGGGAAATCATTCCAGCTA | -1.31

Sequence | binding signal (log2 normalized intensity)
GCAGGTTCTCAGGCCAATCATATCTCCCAG | -1.18
GAAAAGACAGGGTAATTTACAGAACTCTTC | -1.39
CTAACCTTTGACCATCCACGGATGCATGAT | 3.91
CTGGCCTCCTGCGGTCCGGACTCTGCCCCA | 5.15
TTAAACTGCCGCGCCACTGCGTCCAGCCAC | -1.21
GTCTAGCTTGTTCTCTCCCCCAACCCCACC | 5.46
CGGCGGGGTCACGTGGGGCCGGTACAAAAG | 1.71
TGCTCTCTGTCCCTGCACCCTACCCCCATA | 4.73
GCCTGCATGGGCTGTCACCTTTACCCCCAC | 5.65
ATATGTGCCTGCCTTATACAACCTCTGTAA | 1.41
AGAATGAGACCTGCTAGGCTGCATTCTCTG | -1.23
TACTGCCTCAGGGAGGAGTTGTCATCATAA | -0.42
TCTTAGAAGATAAAGTGTCTCCCTCTGCAG | 1.07
TCTATCAAAGGAGAAAAAGTCAACACTTAG | -1.33
CAGCAGTAGGCTCTCGGGCCAGCTGTACAA | -1.31
CTGAGGAAGTGCTGACCTTTGGTCTAAACC | 6.93
ACTGCTCCCTCTGCTCCCCTGGCCTCACCC | 2.87
AGTTGGAATTTCAGAAGCAGGTCAATAGGG | 0.429
